This is an account of results in the RNAGym collection of RNA variant scans (doi:10.1093/nar/gkz1192).

B1: CPEB3 Ribozyme (parent)
chain: UAACAGGGGGCCACAGCAGAAGCGUUCACGUCGCAGCCCCUGUCAGAUUCUGGUGAAUCUGCGAAUUCUGCUGUAUAUCUC

Read counts are not given, so values of variants with three or more changes are uncertain.

The series covers variants of B1. The series can be described thus: self-cleavage, relative activity (ratio to wild type); higher = more cleavage; in vitro, sequencing. Summed up:
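Relative activity compares each variant's cleaved/total read fraction with that of the unmutated ribozyme. To get these fractions, barcoded CPEB3 ribozyme libraries from rounds of error-prone PCR were transcribed with T7 RNA polymerase for 5 hours at 37°C and then given 15 min of DNase I treatment before EDTA was added. The RNAs were reverse transcribed with template switching and sequenced on Illumina, and DNA sequencing linked barcodes to variants. A minimum of 5 reads applied, and three batches were averaged.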
Turning to G24A A64G U72C U76A, the self-cleavage was determined as 0.15.

In the case of G22U U66C U69C U76C, the self-cleavage turned out to be 0.04. As for A21U U26A A45G A47U U66C, the self-cleavage is 0.09. For C23A U31C U48C A57G, the self-cleavage amounted to 0.08. The value for A21U C34G U51C A56U U80C was 0.1.

A21G U25A U78A: the self-cleavage came out at 0.24. C23A A28G C37G A56G: the self-cleavage stood at 0.23. To G24A U67C U69A U80C belongs 0.05.

For A21U U48C U51C, the self-cleavage was found to be 0.16. To A21G U26C A35U belongs 0.16. Take A21G U25C U41A A64G: the self-cleavage stood at 0.21. To A21U U31C C32A belongs 0.09.

With C23G U25C U41A A57G U66C, the self-cleavage worked out at 0.08.

Take C23U C38G G42A: the self-cleavage was found to be 0.07.

Take A21U C23U U60C: the self-cleavage was found to be 0.35. The value for A21U G42A U51C was 0.31. The value for A21G G63C A77G was 0.31. To C23G U26A A35U U43A A65G U67C G70A belongs 0.03.

With C23A G52U U72A, the self-cleavage was 0.08. The value for A21G U72C U78A U80C was 0.65; that for C23A U25C A75G was 0.3; that for A21U A57G U74A U80C was 0.76.

In the case of A21U C37A U41C G53A A64G, the self-cleavage is 0.15. To A21G U31C C40U A64U belongs 0.13.

Take C23U U25C A57U U67C: the self-cleavage turned out to be 0.07.

Turning to G22A U69A C79U, the self-cleavage was 0.11. The value for C23G U25C C39U A45C G61A was 0.08; that for A21G U26C U49C U69C was 0.08. To A21G U49C A77G belongs 0.14.

With A21U C29U G42A U78C, the self-cleavage turned out to be 0.12. To A21G U31A C32U A47G U80C belongs 0.11; to G22U U49C A56G, 0.15; to A21U A45G U54C, 0.17. The value for A21G U41C C62A A65C was 0.16; that for A21G U49C U74A was 0.32. To A21U U41A U49C C50G A57G U60A belongs 0.08; to A21U G53C A57G, 0.32. Take G22C U48C U60C: the self-cleavage was 0.11. The value for G24A U41C U66C U72G was 0.09; that for A21G U26C A75G was 0.25; that for A21U U41A U60G U78A was 0.22. To G24A U54G A56U belongs 0.18; to C23U U31C A35G, 0.26; to A21G U43A G52C A56G, 0.19. To C23A A64G U67A U76C belongs 0.16. Take A21U U31C U78C: the self-cleavage amounted to 0.39. The value for A21G U60C C81U was 0.42. The value for A21G G63C U78C was 0.46; that for A21G U26C C32G A47G U48C U72A U80C was 0.03; that for G22U U67C U69C was 0.28. The value for G24A A64G U78C was 0.08; that for C23U A35G U60C was 0.3. As for C23G U25C A35G U41C U49G U69G, the self-cleavage amounted to 0. As for A21U A47G A65G, the self-cleavage is 0.07. The value for A21U U26C C37A U58C U72G U80C was 0.1; that for A21U A35U A45G A57U A64G was 0.24; that for A21U A28G A45U was 0.1.

As to C23U C40U U43A U49C U51A U72C, the self-cleavage turned out to be 0.06. To A21G U43G A56G belongs 0.09. Turning to A21G U49C A56G U72A, the self-cleavage came out at 0.27. The value for C23U U51A A56G U76C was 0.14. The value for A21U A28G U67A was 0.14; that for G22U A65G U67C was 0.12; that for A21G U25C A47G A57G U78C was 0.05. To C23G A28G A45G belongs 0.28; to G22A A56U U60C, 0.12; to A21U A45U U60C, 0.18. G24A C50U U69C: the self-cleavage was 0.24. Regarding C23A G55C A57G U76A, the self-cleavage came out at 0.05.

On to A21U U25C U31C, for which the self-cleavage was 0.25.

As to G22U A56G A57G G73A, the self-cleavage turned out to be 0.19. The value for C23G U43A C62U was 0.15.

On to C23A C27A G30A C34G U41C U43A, for which the self-cleavage came to 0.32. The value for C23U A35G U43C A56G A57U G61A U72C was 0.04; that for G22U G61A C71U U80G was 0.08. To A21G U41A C59A belongs 0.17.

Regarding G24A U25A C27U U48C, the self-cleavage amounted to 0.12. The value for A21U U25C U54C C68U was 0.13; that for A21G U26C U54C A75U was 0.13. Consider G22A C29A C40U, for which the self-cleavage came to 0.17. The value for A21G U25C U51C U54A was 0.39; that for G24A U26A C27U U51A A57G A75U was 0.07; that for G22A U25G U48C U51A was 0.19. To C23A A35G A64U U80G belongs 0.07; to C23A A35G U67C, 0.08; to A21U A47G U69C, 0.11. The value for C23U A28G G42A U48C was 0.14.

Regarding A21G U31C U76A, the self-cleavage stood at 0.24. For the variant A21G U26C A77G, the self-cleavage stood at 0.16. To G22A U67C U74C belongs 0.18; to C23G U25C U31A G33A U72C, 0.53. To A21G U26A A35G A64G belongs 1.2. To C23A U41C A45G belongs 0.15; to C23A U31A U67C, 0.07; to A21U A56G U78C, 0.25. For the variant A21G U41A U49C G73A U80G, the self-cleavage was determined as 0.34. To A21G U26C U31C U48A U67G belongs 0.05; to A21G U43A U51C A65G, 0.21; to A21G U25C A57G U60C A64U C79U, 0.06.

On to G22A A56U U69A C71A, for which the self-cleavage is 0. To C23G C40A U41A U67C belongs 0.06. The value for G22U A45G U72A U80C was 0.3; that for A21U U31G C50U U76C was 0.22; that for A21U C29U U69C was 0.09. The value for A21G G63A U67A was 0.15; that for C23A U25C A35C A45G A77G was 0.08; that for G24A U41C A45G was 0.07. Turning to A21G U43C A64G U66C U74C, the self-cleavage turned out to be 0.48. To A21U U25C A45G U51A A56U U66C U78C belongs 0.03. The value for A21G U51G A57G U67C U74C A75C was 0.21; that for C23U U25C A35G U41A U48C was 0.07.

Turning to G24A C27A U31G, the self-cleavage stood at 0.2. To C23A A45U U60C belongs 0.2; to A21G U51C U66C, 0.88.

For G24A U41C A56G U66A U76A U78C, the self-cleavage is 0.08. The value for A21U C23U G33C C68U was 0.12. With C23A C27G U74C, the self-cleavage is 0.38. The value for A21G G53A U76C was 0.87; that for A21U C34U C39A U43A U48C was 0.19; that for C23G U26C U54A U74C was 0.1.

Consider A21G U48C U49A, for which the self-cleavage was 0.18. The value for A21G U43C U48A G52C was 0.09. For the variant G22U U25C U26A G33A, the self-cleavage was determined as 0.14. The value for A21G U54G U60A A64G A75U was 0.13. The value for A21U A35U A56G A64U U72G was 0.03; that for C23A G52U U66C U67C was 0.08; that for A21G U41A U66C U69C U72C was 0.16. The value for G22A C32U U51C A56U U69A U72A was 0.06; that for C23U U72C C79A was 0.53. A21G U66C U80C: the self-cleavage came out at 1.06.

Regarding C23U A28U C71G, the self-cleavage is 0.06. Turning to C23G U51A U58A G70A, the self-cleavage was determined as 0.07. With A21G U26A A28G U60C, the self-cleavage came to 0.16. Regarding C23U U66C U69G A77C, the self-cleavage is 0.06. The value for C23U U49C A56U A65C was 0.31. The value for A21U U41A U43G G63A A64G was 0.1; that for G24A U51A U67C U80C was 0.13; that for C23A U25C U54A A64G U72A was 0.17. The value for C23U A47G U49C was 0.21. Consider C23A U25C A35U U48C A57U U66A U69C, for which the self-cleavage amounted to 0.04. To A21G U54G U69C belongs 0.18. To A21G U41C U58C belongs 0.22; to C23U U26C U74A U78C, 0.07; to G24A A47G U54C U80C, 0.26. The value for A21G U51C U58A A64G C68A was 0.1.

For G22A U60A U69A G73A, the self-cleavage came out at 0.07.

With C23U A47G U51C A57G U72C, the self-cleavage worked out at 0.14. The value for A21G U25C C59U U60A was 0.42; that for A21G G55C A57G A65G A75G was 0.08. On to G22U U48G U49A G63A U69C, for which the self-cleavage came out at 0.07. The value for G22A U26C U58C A65G U67A was 0.43; that for G24A C40U U48C G63U U72C was 0.19. The value for G24A C38U A65G U69C was 0.1; that for G22A U51G U60C was 0.12; that for A21G U25A A45U C79U was 0.3. To A21G U25C U60A U78C belongs 0.2. On to C23U U49C U58C, for which the self-cleavage worked out at 0.39. In the case of G24A C29U G33A A77G, the self-cleavage amounted to 0.07. To C23U A35G A45U belongs 0.28; to A21G U41A U60A, 0. To C23G U43A A64U U67C U72C belongs 0.14; to G24A U41C U69C, 0.13; to A21G U41C C44U U69C, 0.07.

As to C23U U41C U48C U58C U74C, the self-cleavage came out at 0.12. To A21G G42A A64G belongs 0.25; to G22A U72C A77U, 0.16. The value for G22A U31C U49C was 0.44.
